# Measurements: the supplement of paper PMC11417369
# This is one part of the list.
# System: PfSIP2 AP2 domain 1 (GST-tagged)
# Test: gcPBM binding intensity (ln(normalized median fluorescence intensity)); higher = stronger DNA binding
# In short: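 DNA-binding domains from P. falciparum, fused to GST and produced in E. coli, were put on an Agilent 4 × 180k double-stranded probe array for 1 h in 1× PBS holding 1% milk, 0.2 mg/ml BSA, 0.5% salmon testes DNA and 0.03% Triton X-100. Probes were primer-extended, 36 bp long and drawn from intergenic genomic regions, with negative controls included. After Alexa488 anti-GST antibody detection and a 488 nm scan, binding intensity was set as the highest Masliner-normalised natural-log median intensity across replicate spots of either probe orientation.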
row,Sequence,gcPBM binding intensity (ln)
1,CATACCTATAGACACACACACACACGCACGCACAAA [CACACA_site6374],7.54
2,TTTTGTAATGCTTTTTTTTTTTTTTTTTTTTTTTTT [CACACA_negctrl_site932],8.78
3,AGTATTATTTACTGCGCATGCTATTTATATATATTA [TGCATGCA_site876],6.79
4,AATAGAAATTATATAAACATAAATGAATAAATAAAT [CACACA_negctrl_site1817],6.69
5,ACCATATATTAAAAAGTGCATTAAATATATAAATAT [GTGCAC_site9443],9.16
6,AATTAAATGGATAAATGTACATATGTGAATATATTT [XGTACX_site84],6.98
7,ATTTTATTTAAATACACACACATATATATATTATAT [CACACA_site4607],7.28
8,CACAGACACCCATACACACACATACCCATATATATA [CACACA_site5023],7.53
9,CTACATATGTATAATATGCACACGTCATTTTCCCCT [CACACA_site2107],7.24
10,AATTATCAGGAATGATGTACTGAAATAAAAAAAAAA [XGTACX_site3280],6.93
11,AAAAAAAAAAAAAAAGCACACATCATATTTTAATTC [CACACA_site9109],7.44
12,ACACAAAAATGAAAAATGAAAAGGGTAATATATATA [CACACA_negctrl_site1490],7.73
13,ATACTGTATAGTCGCACACAAAAATATAAAATATTT [CACACA_site6004],7.11
14,TTACACAAGGATAAAAACATATGTATGATTATATAT [CACACA_negctrl_site654],6.98
15,AAAATTTGAAAAAGGGGTACTTAATAAAAGTTTCAT [XGTACX_site932],6.99
16,CATTCTACAATAAAAAGTACATATATATATTATATA [XGTACX_site921],7.35
17,TCAAAAAAAATTTTAGTGCATATTTTAGTCAAAACA,8.63
18,ATTTAAATAATATGTACACACATTTAAAAAGTTATA [CACACA_site7347],6.94
19,TAATATTTCGTTAAGTTTTAAAGAAAAAAAAAAAAA [CACACA_negctrl_site1253],6.96
20,AAATTAAATGATAGAGCATGCGCTAAAAATGAGAAA [TGCATGCA_site937],6.89
21,ACACATATAATAGTTACATGCAAAAATACTTTTATT [TGCATGCA_site785],6.97
22,TTTTTATAACATAAAAGTACATATTTTTAATTTAAT [XGTACX_site4394],6.78

row,Sequence,gcPBM binding intensity (ln)
1,AAATTAAAAATAATTACACACATAGAAAAGTTATAT [CACACA_site7137],7.12
2,TTTTGCAAATATTACTGTACACAATCTCATATAATT [XGTACX_site2584],6.96
3,TTTTCAGAAAGACATGCATACAAAAATAAAAAAGAT [TGCATGCA_site814],7.64
4,TTATAGTAATAATAATGTACATTTATACACATATAT [XGTACX_site1965],7.05
5,ATATATATATATATAACATGCAAAGTTCAAAAAAAA [TGCATGCA_site943],9.22
6,AAAAAAAACAGACACACACACACATATACATACATA [CACACA_site2665],6.96
7,TTTTTTTTATTATAAATATATATATTATAAAACGAA [XGTACX_negctrl_site189],7.46
8,TTCTTTGTTTTTTTTTTTTTTTTAAAAGATAATATT [XGTACX_negctrl_site381],6.99
9,TTTATTTTTCATTGGGGTACACAAGTTTATTTTTGA [XGTACX_site4262],7.39
10,ATATCGTTTTTAAATTGTACATTCACTATAGAATAA [XGTACX_site6442],7.31
11,ATATATTTATTTTGTGCACACAACGCAAACCTTTTA [CACACA_site3508],8.68
12,ATTTTTTCTTTTCGATGTACCCTTCTTATTCTTTAT [XGTACX_site3782],7.06
13,TATATCGCCTTCAAAAGTACTCATATAAAAAAAAAA [XGTACX_site7123],7.13
14,AAAAAAAAAAAAAAATGTACTTTTATTATTAATATA [XGTACX_site6357],7.11
15,TTTGAACTTTTATATACACACATTATTATAGTATAG [CACACA_site6851],7.02
16,AGTTCATATTTAAAAAGTACATATTTAAAAACTTCT [XGTACX_site4882],7.16
17,ATGCATATATTTATGTGTACATATATTTGTAGGGGG [XGTACX_site6063],8.24
18,AACAAAGAGAAATAAACACACACAAAATAAAGAAAA [CACACA_site8704],6.85
19,ATTAATTAAAATAGTTGTACAATCAAAAAAACAAAA [XGTACX_site7660],7.23
20,TTTTTGTATGCTTCCCGACTACATTATGTCGTAAAT [GTGCAC_negctrl_site164],6.98
21,ATATCGAAAATTTGGTGTACATTTTTATTTGTTCAA [XGTACX_site3094],7.19
22,AGAATATATAAGTATACACACATATATATATATATA [CACACA_site201],9.33

row,Sequence,gcPBM binding intensity (ln)
1,GATATTACGTGTTTGGTATTTTTTGATGTTAATAGG [CACACA_negctrl_site105],7.25
2,TATAAAATAATTAAATGTACATAATATATAAAATAT [XGTACX_site6777],7.12
3,TGAATATTCATATGCACACAAATTAATATACATAAT [CACACA_site442],7.03
4,TATTATAGTCCGACTTTTTAATTTCTTTATTGTTTT [CACACA_negctrl_site1381],6.69
5,TTTTATTTTTAAAATTGTACATTATTATTGTTATTT [XGTACX_site1439],6.85
6,TTTTATGTTTTAAAATGTACGTGTCAATGAATAAGT [XGTACX_site6239],7.96
7,AAATTTTAATTAGACTGTACACATTTTAGAATAATT [XGTACX_site4819],6.87
8,TATTTGTTCTGATCCTTTTATTCAACTTTTTTTTTT [CACACA_negctrl_site978],6.86
9,GGCTAAAAGTTGCACACACACAAAAAAAAAAAAAAA [CACACA_site7531],8.51
10,ACCTTAATTATAATAACACACGAAAAGTGGACACAT [CACACA_site1750],7.44
11,ATGTCACAATTTTTCACACACAAAATTTAAATACAT [CACACA_site5168],7.27
12,TATTATTATATATATAGTACATAAAATATAAAAAAA [XGTACX_site2060],7.03
13,TTTTTTAAATTATATTATAGCAAATAAATATTAAAA [CACACA_negctrl_site1655],6.89
14,TTTTTTTTTTAAATGTGTCCTCATTATAATATATGT [XGTACX_site5331],7
15,TAATTATGCGGACACACACACACACCCAACTAAAAA [CACACA_site5427],7.33
16,GCATTATTATATATTTGTACATATTTTTTTTTAAAA [XGTACX_site5436],7.3
17,AATTATATATAAAGAAGTACTATTTCAAGGAGTTTT [XGTACX_site3837],6.92
18,AATAAAACATCATCATGTACAAAATTCGTCTTTGTA [XGTACX_site4821],6.73
19,TCAAATTTTCAACATTGTACATAAATGTATAAATAT [XGTACX_site6042],6.87
20,CAAAATATATATGACACACACAAAAAAAGTATATTA [CACACA_site1589],6.93
21,TATTGATATATATATATATATATATGTATATACTTA [GTGCAC_negctrl_site111],7.46
22,TTCGCTGTTTTAATTAGTACTTATATATAATATTAT [XGTACX_site1149],7.57

row,Sequence,gcPBM binding intensity (ln)
1,CTAAACCTTTTGAGCACACATATATATATATATATA [CACACA_site1782],9.95
2,TTTTTATATAAGAAAAAATTATAACAATTTGTTAAT [XGTACX_negctrl_site422],6.72
3,AAAAAAAAAATATATTGTACAATATTGTAGCTATAT [XGTACX_site7180],6.99
4,TTCAATAGTAAGTATACACACATATAAATAAATAAA [CACACA_site7295],6.91
5,GCAACCTTGTGCAAATGTACAAAAAAAAAAAAAAAA [XGTACX_site679],7.36
6,TTTTTGTTATTTTTAGTGCAGAAGAATAAATTTTAA,7.79
7,AAAATTTCTTATTTTGTACACACAATAAATATTCAC [CACACA_site8464],7.01
8,TTTTTATTGTTGCTATATTTATAACAATTTATCATA [GTGCAC_negctrl_site75],6.82
9,CAATTTATAAAGAAAACACACATATACATAAATACA [CACACA_site4829],7.13
10,TATATATATGGACACACACACATATATATATATTTT [CACACA_site5409],7.3
11,TATATATAATATAGTGCATGTAAAAAATAAACCATG [TGCATGCA_site932],9.18
12,TATAAATTAAAACATTGTACATTTTTATTATTATGT [XGTACX_site579],6.99
13,TATCTTACTTTTTGCACACACTAATATTATTGTTTA [CACACA_site4990],7.54
14,ACAACTATTCATCATAGTACACGCATGATATATATA [XGTACX_site1539],7.23
15,AAAATTAATATCTTGGTGCATTTTTTAATATTATTA [GTGCAC_site9638],10
16,TTCTTTAAAATGATATACGTTATAAATATATATATA [XGTACX_negctrl_site256],8.82
17,AGAACTTAATGCTGCACACAAAAAAAAGGAAAAATA [CACACA_site1353],7.23
18,AACTTGTATATATACACACACACACTGTCTTTTTTT [CACACA_site1963],7.17
19,AAAAAAAAGTTGTAAGTGCATGTATATAATAATATT,8.08
20,TGATCACATAATAAATGTACAAAAAAAAATTAATAA [XGTACX_site5867],6.75
21,TTTAGATAATTCATTACACACATGTATATATATATA [CACACA_site3483],9.11
22,TAAGGAAGAAGAAAAAGTACTAAAGGTATAAATGCG [XGTACX_site2628],7.09
